Each structure is given as a SMILES string. Out of some 310,000 compounds screened, about 2,200 (0.71%) showed an effect of 50% or more. Effects have a minus sign here. This is one part of the list.

This is an account of results in article PMC4336329 (PLoS ONE, 2015).

For the assay, the target named is human ether-à-go-go-related gene (hERG) potassium channel (human, UniProt Q12809). As to the kind of experiment: primary screen, population patch clamp on CHO cells stably expressing hERG.
Sequence of human ether-à-go-go-related gene (hERG) potassium channel (Q12809 whole entry, looked up): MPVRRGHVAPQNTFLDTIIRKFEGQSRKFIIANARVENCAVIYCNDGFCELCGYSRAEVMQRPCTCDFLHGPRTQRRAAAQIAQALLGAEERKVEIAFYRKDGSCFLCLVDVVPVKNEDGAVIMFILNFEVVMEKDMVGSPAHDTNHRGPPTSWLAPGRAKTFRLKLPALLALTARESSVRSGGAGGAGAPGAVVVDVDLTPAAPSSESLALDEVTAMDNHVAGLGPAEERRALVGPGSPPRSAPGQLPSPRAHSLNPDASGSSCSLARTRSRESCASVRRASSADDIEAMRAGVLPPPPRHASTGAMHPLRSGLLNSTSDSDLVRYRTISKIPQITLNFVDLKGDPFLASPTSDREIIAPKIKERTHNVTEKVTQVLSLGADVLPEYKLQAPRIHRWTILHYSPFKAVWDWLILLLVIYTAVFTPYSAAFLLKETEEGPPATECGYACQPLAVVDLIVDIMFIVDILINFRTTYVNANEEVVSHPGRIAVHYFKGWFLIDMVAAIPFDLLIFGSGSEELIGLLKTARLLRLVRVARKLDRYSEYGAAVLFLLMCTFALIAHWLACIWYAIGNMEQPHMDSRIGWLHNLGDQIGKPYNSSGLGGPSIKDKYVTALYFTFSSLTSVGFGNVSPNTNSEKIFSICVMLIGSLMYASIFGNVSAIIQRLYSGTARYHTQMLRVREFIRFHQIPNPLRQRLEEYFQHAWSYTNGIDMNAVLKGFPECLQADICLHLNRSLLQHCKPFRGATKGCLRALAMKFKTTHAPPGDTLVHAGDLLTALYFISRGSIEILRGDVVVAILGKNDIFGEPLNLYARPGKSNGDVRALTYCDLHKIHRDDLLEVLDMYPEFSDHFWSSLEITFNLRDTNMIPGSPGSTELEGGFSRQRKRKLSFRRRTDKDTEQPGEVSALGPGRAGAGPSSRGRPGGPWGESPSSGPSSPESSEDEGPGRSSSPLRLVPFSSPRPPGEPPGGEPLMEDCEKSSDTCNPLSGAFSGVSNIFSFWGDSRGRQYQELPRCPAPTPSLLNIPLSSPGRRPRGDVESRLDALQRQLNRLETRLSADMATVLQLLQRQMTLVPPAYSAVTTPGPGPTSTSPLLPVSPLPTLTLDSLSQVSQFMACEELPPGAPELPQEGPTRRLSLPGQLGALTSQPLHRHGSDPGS
Take `COC(=O)[C@H](CCSC)NC(=O)Nc1ccc(C(C)C)cc1`: the “hERG current change (%, negative = inhibition) at 1uM” value is listed as 1.21%.

Consider `CCS(=O)(=O)c1ccc(O)c(NC(=O)CCCC(=O)O)c1`, for which the “hERG current change (%, negative = inhibition) at 1uM” value amounted to 4.84%. As to `COc1cc(CN2CCc3ccccc3C2)cc([N+](=O)[O-])c1O`, the “hERG current change (%, negative = inhibition) at 1uM” value came out at 14.1%.

On to `O=C(CN1CCN(C(=O)C2CCCO2)CC1)Nc1c(Cl)cccc1Cl` (centres unmarked), for which the “hERG current change (%, negative = inhibition) at 1uM” value amounted to 18.8%. On to `O=C(NCc1ccco1)c1cc([N+](=O)[O-])ccc1Cl`, for which the “hERG current change (%, negative = inhibition) at 1uM” value was 5.04%.

Consider `CC(=O)Nc1c(C(=O)N2CCOCC2)cnn1-c1ccc(C)c(C)c1`, for which the “hERG current change (%, negative = inhibition) at 1uM” value is reported as 9.6%. Next, `Cc1ccc(C)c(NC(=O)C(NCC(C)(C)N2CCOCC2)c2ccccc2)c1` (centres unmarked): -12.3%; `Cc1cc(C(=O)CSc2nc(N)cc(=O)[nH]2)c(C)n1CCc1ccc(F)cc1`: 7.52%.

For the compound `N#Cc1cc2c(nc1Cl)CCCC2`, the “hERG current change (%, negative = inhibition) at 1uM” value was 11.1%. On to `O=C(CCC(=O)c1cccs1)NCCc1ccc(F)cc1`, for which the “hERG current change (%, negative = inhibition) at 1uM” value came out at 10.2%. Turning to `CC12CC(NC(=O)N1c1ccc(C(=O)N3CCN(c4ccc(F)cc4)CC3)cc1)c1ccccc1O2` (centres unmarked), the “hERG current change (%, negative = inhibition) at 1uM” value was 12.9%. Take `CCS(=O)(=O)c1nc(S(=O)(=O)c2ccc(C)cc2)c(N2CCOCC2)s1`: the “hERG current change (%, negative = inhibition) at 1uM” value was 15%. Consider `Cc1nn2cc(-c3ccc(Cl)cc3)cnc2c1Br`, for which the “hERG current change (%, negative = inhibition) at 1uM” value turned out to be 16.8%. Next, `CN(C)CCN(C(=O)c1ccc(C(=O)c2ccccc2)cc1)c1nc2cc3c(cc2s1)OCO3.Cl`: 11.2%. `O=C(c1ccco1)N1CCN(c2ncnc3sc4c(c23)CCC4)CC1`: the “hERG current change (%, negative = inhibition) at 1uM” value is on record as -20.6%. Next, `CCCc1[nH]n(-c2ccc([N+](=O)[O-])cc2)c(=O)c1C=NCCc1c[nH]c2ccccc12`: 4.25%; `Cc1sc2nc(CN3CCCCC3)nc(Nc3ccc4c(c3)OCCO4)c2c1C`: -89.2%. Next, `CC(=O)Oc1ccc2c(c1)O/C(=C\c1ccncc1)C2=O`: 15.5%; `Cc1cc(C)cc(NC(=O)c2ccc(CSc3nnnn3C)cc2)c1`: 7.56%. As for `O=[N+]([O-])c1ccc(-c2ccccc2)c([As](=O)(O)O)c1`, the “hERG current change (%, negative = inhibition) at 1uM” value came out at 13.9%.

Turning to `COc1cc(CNc2nc3c(C)cc(C)cc3s2)ccc1O.Cl`, the “hERG current change (%, negative = inhibition) at 1uM” value is 15.9%. Regarding `CC(C)(C)c1cc(=O)n2[nH]c(N)nc2n1`, the “hERG current change (%, negative = inhibition) at 1uM” value amounted to 12.4%. The result for `Cc1ccc(-n2nc3c(Cl)nnc(C)c3c2C)cc1` reads 6.41%; that for `CCN(CC)CCCNc1nc2cc(OC)c(OC)cc2c2nc(-c3cccnc3)nn12`, -2.35%; that for `Cc1ccccc1C(=O)Nc1cccc(NC(=O)Cn2cnc3c(=O)n(C)c(=O)n(C)c32)c1`, -5.29%. The result for `Clc1ccc(-c2cc(COc3ccccc3)no2)cc1Cl` reads 7.7%. Consider `O=C1CCC(C(=O)N2CCCCO2)CN1Cc1cccc(F)c1` (centres unmarked), for which the “hERG current change (%, negative = inhibition) at 1uM” value was determined as 14.1%. As for `Cl.O=c1[nH]c2ccccc2n1CCCN1CCCCC1`, the “hERG current change (%, negative = inhibition) at 1uM” value is reported as 16.6%. Next, `CC(C)n1c(N2CCN(C(=O)N3CCCCC3)CC2)nc2ccccc21`: 9.25%; `CC(NS(=O)(=O)CCNC(=O)c1ccccc1)c1ccccc1` (centres unmarked): 12.3%. Next, `Cc1cc(C)cc(NC2=C(N)C(=O)c3ccccc3C2=O)c1`: 13.9%. As for `O=c1c2ccccc2nc(-c2ccccc2)n1-n1cccc1`, the “hERG current change (%, negative = inhibition) at 1uM” value was 6.27%. As to `CC(=O)Nc1ccc(-c2nnc(SCC(=O)Nc3ccc4c(c3)oc3ccccc34)n2C)cc1`, the “hERG current change (%, negative = inhibition) at 1uM” value is listed as 18.8%. For the compound `COc1ccc(OC)c2c(C)c(C)[nH]c12`, the “hERG current change (%, negative = inhibition) at 1uM” value is reported as 2.1%. Next, `Cc1ccccc1NC(=O)COc1coc(CN2CCN(Cc3ccccc3)CC2)cc1=O`: -16.2%; `CCCCN1C(=O)C2ON(c3ccccc3C)C(c3ccco3)C2C1=O` (centres unmarked): 5.81%. The result for `CCOC(=O)C1CCN(C(=O)C2CCN(c3nn4c(=O)cc(C)nc4s3)CC2)CC1` reads 20%. With `CCCCC(=O)Nc1ccc2c3c(cccc13)C(=O)N2CC`, the “hERG current change (%, negative = inhibition) at 1uM” value came out at 14.4%. The result for `S=c1[nH]nc(-c2cccc3ccccc23)n1-c1cccnc1` reads 14.7%; that for `CCOC1=NN(c2ccccc2)C(=O)/C1=C\N(C)C`, 6.84%. On to `Cc1onc(-c2c(F)cccc2Cl)c1C(=O)N1CCCCC1`, for which the “hERG current change (%, negative = inhibition) at 1uM” value worked out at 4.82%. Next, `O=C(Nc1ccccc1)N1CCCN(Cc2c(F)cccc2Cl)CC1`: 11.4%; `CCCCn1c(N)c(N(CC)C(=O)c2cc(Br)ccc2Cl)c(=O)[nH]c1=O`: 7.3%. Next, `O=C(C1CCC1)N1CCc2cc(S(=O)(=O)Nc3ccc4c(c3)OCCO4)ccc21`: 11%; `CN(Cc1ccc(Cl)cc1)C(=O)COC(=O)CSc1ccc([N+](=O)[O-])cc1`: 5.82%; `CC(=O)Nc1ccc(S(=O)(=O)N(C)CC(=O)Nc2ccccc2N2CCOCC2)cc1`: 6.76%. Next, `C[N+]1(CCOS(=O)C23CC4CC(CC(C4)C2)C3)CCOCC1.[Cl-]` (centres unmarked): 14.6%; `O=C1/C(=C/c2ccc(F)cc2)Oc2cc(OC(=O)N3CCOCC3)ccc21`: 20.9%; `O=[N+]([O-])/C(C(Cl)=C(Cl)Cl)=C(\Nc1ccc(F)cc1)n1cncn1`: 16.5%. For `COCCNC(=S)N(Cc1cccs1)Cc1cc2cccc(C)c2[nH]c1=O`, the “hERG current change (%, negative = inhibition) at 1uM” value turned out to be 15.9%. Consider `O=C(Nc1ccnn1C1CCN(CCCc2ccccc2)CC1)c1ccccc1Cl`, for which the “hERG current change (%, negative = inhibition) at 1uM” value is -87.3%.

In the case of `COc1ccc(-c2csc(NS(=O)(=O)c3ccc([N+](=O)[O-])cc3)n2)cc1`, the “hERG current change (%, negative = inhibition) at 1uM” value is recorded as 13.3%. Next, `c1ccc2cc(C3N4CCCN34)ccc2c1` (centres unmarked): 8.13%. On to `Cc1nn(C)c(C)c1S(=O)(=O)N1CCC(C(=O)NCC2COc3ccccc3O2)CC1` (centres unmarked), for which the “hERG current change (%, negative = inhibition) at 1uM” value stood at 5.18%. For the compound `CN(C)Cc1c(C(=O)N/N=C/c2ccccc2OCc2c(F)cccc2Cl)nnn1-c1nonc1N`, the “hERG current change (%, negative = inhibition) at 1uM” value is 20.8%. The result for `CCc1nnnn1-c1ccc([N+](=O)[O-])cc1C` reads 3.66%.
